According to PubChem BioAssay AID1347071 (National Center for Advancing Translational Sciences (NCATS), 2019):
Hit rate of the full screen: of about 410,000 compounds, about 260 (0.063%) were called active. Inconclusive results, whose numbers are uncertain, are shown with a selection of clear calls. Calls come from the whole dose curve; as a rule, active = well fitted activation curve with a large enough effect; inconclusive = small, poorly fitted or top-dose-only effect; inactive = no such curve, though single readings can be large or run the other way. Potencies of inconclusive entries are left out as doubtful fits.

assay: qHTS for compounds that reverse cellular toxicity of Amyloid beta (A-beta) peptide in yeast: Primary Screen; conditions: yeast expressing A-beta42, growth rescue, OD600, 48 h; growth rescue: at 46.1 µM (top of the series), 0% DMSO, 100% iron-clioquinol control; note: nearly all actives have a fitted effect of over 55% in size
Procedure, shortened: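 Yeast A-beta toxicity model in growth medium with pinned compounds, 48 h at 30 C; growth read as absorbance at 600 nm. Normalized to FeCl3/clioquinol equimolar mix (positive) and DMSO (negative).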
Potency is the fitted concentration of half-maximal effect; tags give direction and shape of the fitted curve.

| SMILES | Potency |
| --- | --- |
| O=C(NCCOc1ccccc1Cl)c1cc(F)c(F)cc1Cl | inactive |
| Cc1ccc(-c2ccc(CCC(=O)O)n2-c2cccc(C)c2C)cc1 | inactive |
| CN(C)c1ccc(/C=N/Nc2cccc(C(=O)O)c2)cc1 | inconclusive [activator, full curve, poor fit] |
| S=C1NC2(CCCCC2)N=C1c1ccccc1 | inconclusive [activator, partial curve, poor fit] |
| C(=N\NCc1ccccc1)/c1ccc2ncccc2c1 | inconclusive [activator, single point] |
| Cc1ccc(Nc2nc3ccccc3c(=O)s2)cc1C | inconclusive [activator, single point] |
| CCOc1cccc(C(=O)NC(=S)Nc2cccnc2)c1 | inconclusive [activator, single point] |
| Fc1ccc(Nc2c(-c3ccccn3)nc3ccc(Cl)cn23)cc1 | inconclusive [activator, partial curve] |
| CC(C(=O)NCCC1=CCCCC1)c1ccc([N+](=O)[O-])cc1 (centres undefined) | inconclusive [activator, single point] |
| S=C(Nc1ccccc1)Nc1ccccc1Br | inconclusive [activator, partial curve] |
| CCOC(=O)c1ccc(NC(=S)NCCc2ccc(F)cc2)cc1 | inconclusive [activator, single point] |
| Cc1cccc(Cn2c(COc3ccccc3)nc3ccccc32)c1 | inactive |
| O=[N+]([O-])c1ccc(C2=NN(c3ccccc3)C(c3ccco3)C2)cc1 (centres undefined) | inconclusive [activator, single point] |
| COc1ccc(/C=C/C(=O)Nc2nc(C)c(C(=O)N(C)C)s2)cc1OC | inactive |
| CCc1nn2c(=O)c(S(=O)(=O)Nc3ccc(C)c(C)c3)c(C)nc2s1 | inconclusive [activator, single point] |
| Cc1cc(C)nc(SCc2ccc(F)cc2)n1 | inconclusive [activator, partial curve] |
| N#CC1=C(Nc2ccccc2Cl)SC2(CCCC2)NC1=O | inconclusive [activator, single point] |
| O=C(CCSc1nnc(-c2ccco2)o1)Nc1ccc(Cl)cc1 | inconclusive [activator, partial curve, poor fit] |
| CC1CCc2onc(C(=O)N3CCN(c4cccc(Cl)c4)CC3)c2C1 (centres undefined) | inactive |
| O=C(c1cc(COc2cccc(C(F)(F)F)c2)on1)N1CCC(c2ccccc2)CC1 | inconclusive [activator, partial curve, poor fit] |
| COc1ccc(Cl)cc1NC(=O)CCc1ccccc1 | inactive |
| Cc1ccccc1OCc1n[nH]c(=S)n1Cc1ccccc1 | inconclusive [activator, partial curve, poor fit] |

| SMILES | Potency |
| --- | --- |
| COc1ccc(/C=C/CN2CCC(Oc3ccc(C(=O)N4CCCCC4)cc3)CC2)cc1 | inactive |
| Cc1ccc(-c2nnc3n2N=C(c2ccccc2Br)CS3)cc1 | inactive |
| COC(=O)[C@@]1(Cc2ccc(F)cc2)[C@H]2c3cc(C(=O)N(C)C)n(CCc4c[nH]c5ccc(O)cc45)c3C[C@H]2CN1C(=O)c1ccccc1 | inactive |
| COc1ccc(NC(=O)c2csnn2)cc1Cl | inactive |
| O=C(CC1N=C2c3ccccc3N=C(SCC(=O)Nc3ccc(F)cc3)N2C1=O)NCc1ccco1 (centres undefined) | inconclusive [activator, partial curve, poor fit] |
| COC1(C)CC2C(CC1OC(=O)c1cc([N+](=O)[O-])cc([N+](=O)[O-])c1)C2(C)C (centres undefined) | inconclusive [activator, partial curve] |
| CCOC(=O)c1nnn(-c2nonc2N)c1CNc1ccc(C)c(Br)c1 | inconclusive [activator, full curve, poor fit] |
| CCOC(=O)c1sc(NC(=O)CNCc2ccccn2)c(C(=O)OCC)c1C | inconclusive [activator, full curve] |
| CCc1cccc(CC)c1NC(=S)NCCc1c(C)[nH]c2ccccc12 | inconclusive [activator, partial curve, poor fit] |
| COc1cccc(OCC(O)CN2CCN(C(c3ccccc3)c3ccccc3)CC2)c1 (centres undefined) | inconclusive [activator, single point] |
| O=C1CC(N(O)c2ccccc2)C(=O)N1c1ccc(Cl)c(Cl)c1 (centres undefined) | inconclusive [activator, partial curve] |
| CSCCC(NS(=O)(=O)c1cccc(C(F)(F)F)c1)C(=O)N(C)CCOc1ccc(Cl)cc1 (centres undefined) | inconclusive [activator, partial curve, poor fit] |
| Cc1ccccc1-c1nc2ccccc2[nH]1 | inactive |
| Cc1cccc(OC(=O)Cn2c(C(F)(F)F)nc3ccccc32)c1 | inconclusive [activator, full curve, poor fit] |
| CCCCNC(=O)/C(C#N)=C/c1cccnc1 | inconclusive [activator, partial curve, poor fit] |
| O=C(Cn1nc(Cl)nc1Cl)Nc1ccccc1 | inconclusive [activator, full curve, poor fit] |
| CCC1=NN(C(=O)c2ccc(Br)cc2)C(O)(c2ccc(C)cc2)C1 (centres undefined) | inconclusive [activator, partial curve, poor fit] |
| COc1ccccc1CNc1nc2cc(-c3sccc3C)sc2c(=O)n1C | inactive |
| CCN(CC)c1ccc(/C=N/NC(=S)NC)c(O)c1 | inconclusive [activator, single point] |
| O=C(c1ccco1)N1CCN(C(=O)c2ccc(-c3cccc(C(F)(F)F)c3)o2)CC1 | inconclusive [activator, partial curve, poor fit] |
| O=S(=O)(NCCOc1ccccc1F)c1cccc(Br)c1 | inconclusive [activator, single point] |
| N#CCCN(C(=O)COC(=O)c1ccc(CNS(=O)(=O)c2ccc(F)c(Cl)c2)cc1)c1ccc(F)cc1 | inconclusive [activator, partial curve, poor fit] |
